Among all 91,000 compounds or so, about 290 (0.32%) were called active. The inconclusive results got no clear call from the source; some entries with a clear call stand among them for comparison. The call rests on the fitted dose curve; in most records, active means well fitted inhibition curve with a large enough effect; inconclusive means small, poorly fitted or top-dose-only effect; inactive means no such curve, though single readings can be large or run the other way. Potencies beside an inconclusive call are fits to weak or partial responses and may not hold up.
molecular target: Single-stranded DNA cytosine deaminase (Homo sapiens) (UniProt Q9GZX7); experiment: Primary qHTS assay for inhibitors of Activation Induced Cytidine Deaminase (AID): AID signal; conditions: AID deamination FRET fluorescence, UDG-coupled, 4 h; series mostly up to 115 µM; further: nearly all actives have a fitted effect of over 25% in size
Potency means the concentration at half of the fitted maximal effect; tags describe the fitted curve by direction and shape.

Chain of UniProt Q9GZX7 (Q9GZX7 whole entry, looked up): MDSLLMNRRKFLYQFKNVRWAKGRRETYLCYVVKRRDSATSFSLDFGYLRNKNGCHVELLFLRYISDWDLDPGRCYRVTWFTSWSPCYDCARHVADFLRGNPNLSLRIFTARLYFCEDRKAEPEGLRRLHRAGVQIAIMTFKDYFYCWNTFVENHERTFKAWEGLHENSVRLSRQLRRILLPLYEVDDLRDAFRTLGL

With `COc1ccc(N2CCN(C(=O)c3ccc4c(c3)N(Cc3ccc(F)cc3)C(=O)c3ccccc3S4=O)CC2)cc1` (centres undefined) as the compound, how does the Potency read?
Its Potency is inconclusive: 31.6 µM [inhibitor, partial curve, poor fit].

With `COc1ccc(S(=O)(=O)N2CCn3cccc3C2c2ccccc2)cc1` (centres undefined) as the compound, how does the Potency read?
Its Potency is “inactive”.

Which Potency does the source give for `CC(C)Cc1cnc2c(c1SCC(=O)NC(C)C)c(=O)n(C)c(=O)n2C` here?
The Potency was inconclusive: 50.1 µM [inhibitor, partial curve, poor fit].

Which Potency does the source give for `Cc1ccc(-n2ncc(C(=O)NCCCN3CCN(c4cccc(Cl)c4)CC3)c2-n2cccc2)cc1` here?
The Potency was inconclusive: 22.4 µM [inhibitor, full curve, poor fit].

With `O=C(c1cnc(N2CCCCC2)c2ccccc12)N1CCN(c2ccccc2F)CC1` as the compound, how does the Potency read?
Its Potency is inconclusive: 44.7 µM [inhibitor, partial curve, poor fit].

For `CCOc1ccc(NC(=O)Cn2c(Nc3ccc(F)c(C)c3)nc(C)cc2=O)cc1`, which Potency is on record?
Its Potency is “inactive”.

With `Cc1cccc(-c2noc(CN(C(=O)c3ccccc3Cl)C(C)C)n2)c1` as the compound, how does the Potency read?
Its Potency is inconclusive: 89.1 µM [inhibitor, single point].

Which Potency does the source give for `Cc1cc2oc(=O)c(CC(=O)O)c(C)c2c2occ(-c3ccc(F)cc3)c12` here?
Its Potency is inconclusive: 56.2 µM [inhibitor, partial curve, poor fit].

For `Cc1ccc([N+](=O)[O-])cc1N=C/C(Br)=C/c1ccccc1`, which Potency is on record?
The Potency was inconclusive: 79.4 µM [inhibitor, partial curve, poor fit].

How did the Potency turn out when `COc1ccc(C2C(=O)N(C3CCC(C)CC3)CC(=O)N2Cc2ccccc2Cl)cc1OC` (centres undefined) was run?
Its Potency is inconclusive: 31.6 µM [inhibitor, partial curve, poor fit].

Which Potency does the source give for `Cc1ccc(-c2cc(=O)c3cc(Br)ccc3o2)cc1` here?
The Potency was “inactive”.

How did the Potency turn out when `COc1ccccc1/C=C(\C#N)c1nc2ccccc2[nH]1` was run?
The Potency was “inactive”.

How did the Potency turn out when `COc1ccc(-n2c(=O)c3c4c(sc3n(Cc3cc(C)ccc3C)c2=O)CN(C(C)=O)CC4)c(OC)c1` was run?
Its Potency is inconclusive: 56.2 µM [inhibitor, partial curve, poor fit].

`Clc1ccc(-c2cc3ccccn3c2)cc1` was tested. Which Potency did it give?
Its Potency is “inactive”.

`CSc1ccc(/C=C(/C#N)S(=O)(=O)c2ccc(C)cc2)cc1` was tested. Which Potency did it give?
The Potency was inconclusive: 44.7 µM [inhibitor, partial curve, poor fit].

How did the Potency turn out when `CCOc1ccc2c(c1)c(=O)c(C(=O)c1ccccc1)cn2Cc1ccccc1` was run?
Its Potency is inconclusive: 39.8 µM [inhibitor, single point].

For `Cc1cc(/C=C(/C#N)c2ccccn2)c(C)n1C1CC1`, which Potency is on record?
The Potency was “inactive”.

With `CC(=O)Nc1cc(C(=O)NCc2ccccc2Cl)ccc1Sc1ccc(F)cc1` as the compound, how does the Potency read?
Its Potency is inconclusive: 50.1 µM [inhibitor, full curve, poor fit].

How did the Potency turn out when `Brc1ccc(CNc2n[nH]c(-c3cccs3)n2)cc1` was run?
The Potency was “inactive”.

With `COc1ccc(/C=C/C(=O)c2ccc(C)cc2)cc1OC` as the compound, how does the Potency read?
Its Potency is inconclusive: 56.2 µM [inhibitor, partial curve, poor fit].

Which Potency does the source give for `CCn1cc2nc(SCc3ccccc3Cl)n(CCc3ccccc3)c(=O)c2n1` here?
Its Potency is inconclusive: 28.2 µM [inhibitor, single point].

`CCOC(=O)C1CCCN(C(=O)c2cccc(NC(=O)c3nsc4ccccc34)c2)C1` (centres undefined) was tested. Which Potency did it give?
The Potency was inconclusive: 25.1 µM [inhibitor, full curve, poor fit].

For `CCOc1ccc(OCC)c(NC(=O)c2cc(CN3CCOCC3)on2)c1`, which Potency is on record?
Its Potency is “inactive”.

Which Potency does the source give for `Cn1c(SCC(=O)N2CCCc3ccccc32)ncc(C(=O)Nc2ccc(F)cc2)c1=O` here?
The Potency was inconclusive: 56.2 µM [inhibitor, partial curve, poor fit].

For `CCCn1c(SCc2nc(-c3cc(OC)ccc3OC)no2)nnc1-c1ccc(Cl)cc1`, which Potency is on record?
Its Potency is inconclusive: 44.7 µM [inhibitor, partial curve].

For `CCOc1ccc(-c2nonc2NC(=O)c2oc3c(C)c(C)ccc3c2C)cc1OCC`, which Potency is on record?
Its Potency is inconclusive: 3.55 µM [inhibitor, full curve, poor fit].

For `Cc1ccc(-n2nc(C)c(C(=O)NCCCN3CCN(c4ccc(F)cc4)CC3)c2-n2cccc2)cc1`, which Potency is on record?
The Potency was inconclusive: 35.5 µM [inhibitor, partial curve, poor fit].

`CCN(CC)CCOC(=O)c1ccc(NC(=O)Cn2ncc3c([nH]c4ccc(C)cc43)c2=O)cc1` was tested. Which Potency did it give?
The Potency was inconclusive: 44.7 µM [inhibitor, partial curve, poor fit].

With `O=C(O)CCC(=O)c1cccc(Br)c1` as the compound, how does the Potency read?
Its Potency is “inactive”.

For `CCc1ccc(CN(Cc2ccco2)C(=O)c2ccc(OC)cc2)cc1`, which Potency is on record?
The Potency was active: 39.8 µM.

Which Potency does the source give for `COCCCNC(=O)CSC1=Nc2ccccc2C2=NC(CCC(=O)NCc3ccccc3OC)C(=O)N12` (centres undefined) here?
Its Potency is inconclusive: 31.6 µM [inhibitor, full curve].

With `Cc1nnc(SCc2ccccc2)c2cc3sccc3n12` as the compound, how does the Potency read?
The Potency was inconclusive: 56.2 µM [inhibitor, partial curve, poor fit].

How did the Potency turn out when `CCn1c(=O)c2cc(C(=O)N(CCN(C)C)Cc3ccccc3)sc2c2ccccc21` was run?
Its Potency is inconclusive: 89.1 µM [inhibitor, partial curve, poor fit].

Which Potency does the source give for `CCOC(=O)C1CCCN(CCOc2cccc(C(F)(F)F)c2)C1` (centres undefined) here?
Its Potency is “inactive”.

How did the Potency turn out when `Cc1ccc(CNC(=O)c2ccc3nc(N4CCCCC4)sc3c2)cc1` was run?
The Potency was “inactive”.

Which Potency does the source give for `O=S(=O)(NCCc1nnc2ccc(SCc3ccc(Cl)cc3Cl)nn12)c1ccccc1` here?
Its Potency is inconclusive: 50.1 µM [inhibitor, partial curve, poor fit].

Which Potency does the source give for `CCOC(=O)c1[nH]c2c(c1Cc1ccccc1)C(=O)CC(c1ccc(Cl)cc1)C2` (centres undefined) here?
The Potency was inconclusive: 35.5 µM [inhibitor, partial curve].

Which Potency does the source give for `Cc1ccc(C(=O)/C=C/c2ccc(-c3ccccc3Cl)o2)cc1` here?
The Potency was “inactive”.

Which Potency does the source give for `Cn1c(SCc2ccc(F)cc2)nc2ccc(C(=O)NCc3ccc(Cl)cc3)cc21` here?
Its Potency is inconclusive: 5.62 µM [inhibitor, full curve, poor fit].

For `CCCn1c(SCc2nc(-c3ccc(OC)cc3OC)no2)nnc1-c1ccc(Cl)cc1`, which Potency is on record?
The Potency was inconclusive: 39.8 µM [inhibitor, partial curve].

For `FC(F)(F)c1ccccc1N/N=C1/CCc2ccccc21`, which Potency is on record?
Its Potency is “inactive”.

Which Potency does the source give for `COc1cccc(Cn2c(=O)c3sccc3n(CC(=O)N(C)C3CCCCC3)c2=O)c1` here?
Its Potency is “inactive”.

Which Potency does the source give for `Cc1ccc2[nH]c(CSc3nnc(NC(=O)COc4ccccc4)s3)cc(=O)c2c1` here?
The Potency was “inactive”.

With `CCOc1ccc(C2c3[nH]c4ccccc4c3CCN2C(=O)CCc2ccccc2)cc1` (centres undefined) as the compound, how does the Potency read?
The Potency was inconclusive: 25.1 µM [inhibitor, full curve].

For `O=C(CSC1=Nc2ccccc2C2=NC(CC(=O)NC3CCCCC3)C(=O)N12)Nc1ccc(F)cc1` (centres undefined), which Potency is on record?
Its Potency is inconclusive: 50.1 µM [inhibitor, partial curve, poor fit].

Which Potency does the source give for `Cc1c2cnn(-c3ccccc3)c(=O)c2c(C)n1CCCC(=O)Nc1cc(F)ccc1F` here?
The Potency was inconclusive: 2.82 µM [inhibitor, full curve, poor fit].

Which Potency does the source give for `CCOC(=O)c1cc(NC(=O)c2cccc(-c3cc4ccccc4oc3=O)c2)ccc1N1CCOCC1` here?
The Potency was “inactive”.

With `O=C(Nc1ccc(F)cc1F)c1cccc2c1C(=O)N(C1CCCCC1)C2` as the compound, how does the Potency read?
The Potency was inconclusive: 35.5 µM [inhibitor, single point].

Which Potency does the source give for `Cc1ccc(Cn2cc(C(=O)NCCCc3[nH]nc(N)c3C#N)c(-c3ccc(C)cc3)n2)cc1` here?
Its Potency is “inactive”.

For `CCOc1ccccc1C(=O)Oc1c(S(=O)(=O)c2ccc(C)cc2)c(C)nn1-c1ccccc1`, which Potency is on record?
The Potency was inconclusive: 50.1 µM [inhibitor, partial curve, poor fit].

For `COc1ccc(NCc2cc3cc4c(cc3n(CC(=O)Nc3cccc(F)c3)c2=O)OCO4)cc1`, which Potency is on record?
Its Potency is inconclusive: 100 µM [inhibitor, partial curve].

How did the Potency turn out when `CCc1c(C)sc(NC(=O)CCCCl)c1C#N` was run?
The Potency was “inactive”.

`CCOc1ccc(N(Cc2ccccc2)C(=O)c2nc(SCC)ncc2Cl)cc1` was tested. Which Potency did it give?
The Potency was inconclusive: 7.94 µM [inhibitor, partial curve, poor fit].

With `Cc1nc2c3ccccc3nc(NNC(=O)CCC(=O)N3CCN(c4cccc(Cl)c4)CC3)n2n1` as the compound, how does the Potency read?
Its Potency is inconclusive: 2.82 µM [inhibitor, full curve, poor fit].

Which Potency does the source give for `Cc1ccc(NC(=O)CSc2nc3ccc(Br)cc3[nH]2)c(C)c1` here?
The Potency was “inactive”.

`COc1ccc(CCN2CCC(CNC(=O)c3cnn(-c4ccc(C)cc4)c3C3CCN(C(=O)OC(C)(C)C)CC3)CC2)cc1` was tested. Which Potency did it give?
Its Potency is inconclusive: 56.2 µM [inhibitor, partial curve, poor fit].

`COc1ccc(C(CNC(=O)COc2cc(C)cc(C)c2)N2CCCCC2)cc1` (centres undefined) was tested. Which Potency did it give?
Its Potency is inconclusive: 50.1 µM [inhibitor, partial curve, poor fit].

Which Potency does the source give for `CC1C/C(=N/NC(=S)Nc2ccc(SC(F)F)cc2)CC(C)(C)C1` (centres undefined) here?
The Potency was “inactive”.

For `Cc1ccc(S(=O)(=O)N2CCc3cc(C(=O)N(C)Cc4ccccc4)ccc32)cc1`, which Potency is on record?
Its Potency is inconclusive: 8.91 µM [inhibitor, full curve, poor fit].

For `Cc1cccc(N(C)S(=O)(=O)c2ccc(-c3cc(C)no3)s2)c1`, which Potency is on record?
Its Potency is inconclusive: 79.4 µM [inhibitor, partial curve].

How did the Potency turn out when `CS(=O)(=O)c1ccc(F)c(NC(=O)CCCc2cccs2)c1` was run?
The Potency was “inactive”.

How did the Potency turn out when `CC(C)(C)c1ccc(-c2nc(SCCOc3ccc(Cl)cc3)n3[nH]c(=O)cc3n2)cc1` was run?
The Potency was inconclusive: 56.2 µM [inhibitor, partial curve, poor fit].

How did the Potency turn out when `CCN1c2ccccc2-n2cccc2C12CCN(C(=O)Nc1ccccc1Br)CC2` was run?
The Potency was “inactive”.

With `CCCCn1cc(S(=O)(=O)c2ccccc2)c(=O)c2cc(F)c(N3CCN(CCC)CC3)cc21` as the compound, how does the Potency read?
The Potency was inconclusive: 50.1 µM [inhibitor, partial curve, poor fit].
